Test results from paper PMC5062570 (Nature Communications, 2016).
Values joined by “and” are separate entries in the source; they are usually repeats but may differ in a detail not shown here. Identical values can stand only once.

What was measured:
[1] = target: T1, PF-7802-labelled proteins in ARPE-19 cells (Homo sapiens, UniProt O14773); details: for Median SILAC Ratio (Heavy/Light): TPP1 Tripeptidyl-peptidase 1 (O14773)
T1 sequence (O14773 196-563): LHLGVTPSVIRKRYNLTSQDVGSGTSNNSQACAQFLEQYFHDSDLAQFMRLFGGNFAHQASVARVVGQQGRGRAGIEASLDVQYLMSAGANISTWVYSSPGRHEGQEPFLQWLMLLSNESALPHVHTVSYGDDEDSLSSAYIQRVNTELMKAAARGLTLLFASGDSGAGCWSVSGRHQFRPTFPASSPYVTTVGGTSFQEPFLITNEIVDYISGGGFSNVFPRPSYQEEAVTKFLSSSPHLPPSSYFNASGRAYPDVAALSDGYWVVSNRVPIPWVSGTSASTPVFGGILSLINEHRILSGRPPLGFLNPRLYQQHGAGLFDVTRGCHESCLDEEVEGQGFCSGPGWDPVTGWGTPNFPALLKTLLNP

[2] = target: T2, PF-7802-labelled proteins in ARPE-19 cells (Homo sapiens, UniProt P30837); details: for Median SILAC Ratio (Heavy/Light): protein ALDH1B1 Aldehyde dehydrogenase X, mitochondrial (P30837)
T2 sequence (P30837 18-517): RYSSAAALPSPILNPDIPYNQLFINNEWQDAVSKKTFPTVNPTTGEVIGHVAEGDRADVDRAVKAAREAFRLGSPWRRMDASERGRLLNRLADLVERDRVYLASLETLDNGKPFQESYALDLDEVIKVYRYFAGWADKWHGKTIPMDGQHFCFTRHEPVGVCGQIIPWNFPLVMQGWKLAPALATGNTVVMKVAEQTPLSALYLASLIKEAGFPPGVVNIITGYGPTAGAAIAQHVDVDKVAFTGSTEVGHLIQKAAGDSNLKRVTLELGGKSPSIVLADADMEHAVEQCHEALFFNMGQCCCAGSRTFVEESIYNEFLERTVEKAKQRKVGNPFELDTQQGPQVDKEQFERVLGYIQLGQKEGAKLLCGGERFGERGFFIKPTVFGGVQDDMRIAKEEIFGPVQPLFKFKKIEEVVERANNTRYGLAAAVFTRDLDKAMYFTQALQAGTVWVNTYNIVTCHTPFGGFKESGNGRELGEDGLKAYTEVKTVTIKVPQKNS

[3] = target: PF-7802-labelled proteins in ARPE-19 cells (Homo sapiens, UniProt Q6PIU2); details: protein NCEH1 Neutral cholesterol ester hydrolase 1 (Q6PIU2); replicates in separate columns
Sequence of UniProt Q6PIU2 (Q6PIU2 whole entry): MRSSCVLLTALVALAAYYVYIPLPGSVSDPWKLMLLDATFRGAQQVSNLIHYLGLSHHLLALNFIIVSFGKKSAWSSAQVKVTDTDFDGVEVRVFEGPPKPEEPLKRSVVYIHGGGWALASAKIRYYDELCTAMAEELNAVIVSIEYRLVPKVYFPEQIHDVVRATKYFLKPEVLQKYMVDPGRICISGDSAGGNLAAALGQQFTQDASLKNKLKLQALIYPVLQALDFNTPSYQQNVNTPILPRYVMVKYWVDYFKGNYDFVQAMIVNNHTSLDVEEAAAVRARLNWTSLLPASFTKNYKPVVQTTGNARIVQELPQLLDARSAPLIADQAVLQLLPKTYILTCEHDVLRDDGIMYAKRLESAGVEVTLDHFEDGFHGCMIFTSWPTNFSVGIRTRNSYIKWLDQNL

[4] = target: PF-7802-labelled proteins in ARPE-19 cells (Homo sapiens, UniProt P49411); details: for Median SILAC Ratio (Heavy/Light): TUFM Elongation factor Tu, mitochondrial (P49411)
[5] = target: PF-7802-labelled proteins in ARPE-19 cells (Homo sapiens, UniProt P62266); details: protein RPS23 40S ribosomal protein S23, P62266
[6] = target: T3, PF-7802-labelled proteins in ARPE-19 cells (Homo sapiens, UniProt Q99798); details: for Median SILAC Ratio (Heavy/Light): protein ACO2 Aconitate hydratase, mitochondrial (Q99798)
T3 sequence (Q99798 28-780): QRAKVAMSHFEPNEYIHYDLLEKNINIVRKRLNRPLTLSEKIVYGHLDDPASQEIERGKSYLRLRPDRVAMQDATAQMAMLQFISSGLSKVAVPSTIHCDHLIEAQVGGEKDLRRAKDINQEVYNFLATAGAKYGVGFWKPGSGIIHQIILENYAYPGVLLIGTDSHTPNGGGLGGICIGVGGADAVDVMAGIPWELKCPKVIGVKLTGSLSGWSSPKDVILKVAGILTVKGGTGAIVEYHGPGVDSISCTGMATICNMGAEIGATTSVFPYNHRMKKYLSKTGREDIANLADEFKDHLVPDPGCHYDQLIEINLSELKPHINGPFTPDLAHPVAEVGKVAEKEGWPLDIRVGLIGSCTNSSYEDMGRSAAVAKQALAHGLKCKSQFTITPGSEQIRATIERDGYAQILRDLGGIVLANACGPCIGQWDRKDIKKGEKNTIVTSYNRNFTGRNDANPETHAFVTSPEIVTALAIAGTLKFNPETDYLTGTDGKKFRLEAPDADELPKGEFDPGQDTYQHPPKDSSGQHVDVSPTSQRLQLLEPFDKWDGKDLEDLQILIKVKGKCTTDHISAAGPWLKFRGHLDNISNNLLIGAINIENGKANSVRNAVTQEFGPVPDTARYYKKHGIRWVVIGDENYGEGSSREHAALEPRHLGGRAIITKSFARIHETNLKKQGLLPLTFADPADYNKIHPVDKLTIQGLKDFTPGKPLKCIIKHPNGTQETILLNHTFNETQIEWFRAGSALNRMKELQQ

[7] = target: PF-7802-labelled proteins in ARPE-19 cells (Homo sapiens, UniProt P37059); details: protein HSD17B2 Estradiol 17-beta-dehydrogenase 2 (P37059); one column per replicate
Sequence of UniProt P37059 (P37059 whole entry): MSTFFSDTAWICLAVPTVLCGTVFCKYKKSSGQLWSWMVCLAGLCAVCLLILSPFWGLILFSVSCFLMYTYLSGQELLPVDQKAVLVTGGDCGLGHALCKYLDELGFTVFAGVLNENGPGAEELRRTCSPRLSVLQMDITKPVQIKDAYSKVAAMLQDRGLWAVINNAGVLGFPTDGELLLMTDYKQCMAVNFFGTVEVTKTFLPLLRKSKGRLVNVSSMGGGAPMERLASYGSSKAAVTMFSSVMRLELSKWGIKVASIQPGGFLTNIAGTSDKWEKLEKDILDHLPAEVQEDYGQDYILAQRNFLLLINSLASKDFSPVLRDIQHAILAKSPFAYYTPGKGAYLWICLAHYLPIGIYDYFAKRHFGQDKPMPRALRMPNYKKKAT

[8] = target: PF-7802-labelled proteins in ARPE-19 cells (Homo sapiens, UniProt Q53GQ0); details: protein HSD17B12 Estradiol 17-beta-dehydrogenase 12 (Q53GQ0); one column per replicate
Sequence of UniProt Q53GQ0 (Q53GQ0 whole entry): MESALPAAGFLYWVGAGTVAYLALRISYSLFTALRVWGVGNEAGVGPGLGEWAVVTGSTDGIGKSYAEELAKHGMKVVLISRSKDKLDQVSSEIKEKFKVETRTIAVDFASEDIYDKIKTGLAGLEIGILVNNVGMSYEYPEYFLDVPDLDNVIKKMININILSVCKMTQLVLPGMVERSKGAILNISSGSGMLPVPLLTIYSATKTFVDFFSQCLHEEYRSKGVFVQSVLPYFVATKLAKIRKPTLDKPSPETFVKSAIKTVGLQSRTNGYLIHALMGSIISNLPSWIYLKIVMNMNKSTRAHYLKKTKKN

[9] = target: PF-7802-labelled proteins in ARPE-19 cells (Homo sapiens, UniProt P26599); details: for Median SILAC Ratio (Heavy/Light): protein PTBP1 Polypyrimidine tract-binding protein 1, P26599
Sequence of UniProt P26599 (P26599 whole entry): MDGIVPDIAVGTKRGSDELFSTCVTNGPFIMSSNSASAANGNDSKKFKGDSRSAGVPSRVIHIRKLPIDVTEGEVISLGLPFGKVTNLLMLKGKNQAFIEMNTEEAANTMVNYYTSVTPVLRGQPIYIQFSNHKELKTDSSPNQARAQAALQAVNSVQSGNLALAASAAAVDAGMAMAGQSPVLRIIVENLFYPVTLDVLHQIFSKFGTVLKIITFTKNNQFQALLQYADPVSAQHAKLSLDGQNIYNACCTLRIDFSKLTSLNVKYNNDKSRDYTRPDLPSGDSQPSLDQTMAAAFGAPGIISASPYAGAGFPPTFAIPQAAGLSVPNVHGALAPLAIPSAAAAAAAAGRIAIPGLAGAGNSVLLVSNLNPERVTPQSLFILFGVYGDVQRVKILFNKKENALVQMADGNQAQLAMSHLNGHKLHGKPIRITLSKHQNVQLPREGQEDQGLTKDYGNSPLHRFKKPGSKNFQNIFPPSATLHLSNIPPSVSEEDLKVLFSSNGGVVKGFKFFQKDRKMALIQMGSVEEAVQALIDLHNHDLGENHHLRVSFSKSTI

[10] = target: PF-7802-labelled proteins in ARPE-19 cells (Homo sapiens, UniProt Q2TB90); details: protein HKDC1 Putative hexokinase HKDC1 (Q2TB90); one column per replicate
Sequence of UniProt Q2TB90 (Q2TB90 whole entry): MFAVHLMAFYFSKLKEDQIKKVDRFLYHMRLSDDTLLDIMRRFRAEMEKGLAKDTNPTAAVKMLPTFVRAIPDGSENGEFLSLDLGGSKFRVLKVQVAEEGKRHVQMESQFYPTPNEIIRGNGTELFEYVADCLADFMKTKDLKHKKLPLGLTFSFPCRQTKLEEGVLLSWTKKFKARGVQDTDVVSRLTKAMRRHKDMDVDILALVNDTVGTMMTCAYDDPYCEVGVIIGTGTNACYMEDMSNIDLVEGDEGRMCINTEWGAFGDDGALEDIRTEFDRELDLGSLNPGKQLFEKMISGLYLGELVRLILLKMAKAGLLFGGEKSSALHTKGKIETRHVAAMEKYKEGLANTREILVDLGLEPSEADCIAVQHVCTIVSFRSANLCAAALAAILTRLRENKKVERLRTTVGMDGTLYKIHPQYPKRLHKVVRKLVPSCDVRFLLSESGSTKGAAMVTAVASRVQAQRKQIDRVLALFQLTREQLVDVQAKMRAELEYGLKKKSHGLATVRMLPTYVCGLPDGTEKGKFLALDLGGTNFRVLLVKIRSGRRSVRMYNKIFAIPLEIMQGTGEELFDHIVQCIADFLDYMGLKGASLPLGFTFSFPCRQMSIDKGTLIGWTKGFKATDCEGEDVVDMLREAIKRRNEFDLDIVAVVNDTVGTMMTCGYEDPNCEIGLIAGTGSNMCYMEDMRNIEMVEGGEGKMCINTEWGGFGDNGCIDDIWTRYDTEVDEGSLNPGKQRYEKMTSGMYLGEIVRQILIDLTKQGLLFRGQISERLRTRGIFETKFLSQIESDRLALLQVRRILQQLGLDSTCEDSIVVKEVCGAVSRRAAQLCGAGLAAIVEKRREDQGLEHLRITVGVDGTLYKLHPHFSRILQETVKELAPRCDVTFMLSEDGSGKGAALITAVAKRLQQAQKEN

[11] = target: PF-7802-labelled proteins in ARPE-19 cells (Homo sapiens, UniProt P55072); details: for Median SILAC Ratio (Heavy/Light): VCP Transitional endoplasmic reticulum ATPase (P55072)
Sequence of UniProt P55072 (P55072 whole entry): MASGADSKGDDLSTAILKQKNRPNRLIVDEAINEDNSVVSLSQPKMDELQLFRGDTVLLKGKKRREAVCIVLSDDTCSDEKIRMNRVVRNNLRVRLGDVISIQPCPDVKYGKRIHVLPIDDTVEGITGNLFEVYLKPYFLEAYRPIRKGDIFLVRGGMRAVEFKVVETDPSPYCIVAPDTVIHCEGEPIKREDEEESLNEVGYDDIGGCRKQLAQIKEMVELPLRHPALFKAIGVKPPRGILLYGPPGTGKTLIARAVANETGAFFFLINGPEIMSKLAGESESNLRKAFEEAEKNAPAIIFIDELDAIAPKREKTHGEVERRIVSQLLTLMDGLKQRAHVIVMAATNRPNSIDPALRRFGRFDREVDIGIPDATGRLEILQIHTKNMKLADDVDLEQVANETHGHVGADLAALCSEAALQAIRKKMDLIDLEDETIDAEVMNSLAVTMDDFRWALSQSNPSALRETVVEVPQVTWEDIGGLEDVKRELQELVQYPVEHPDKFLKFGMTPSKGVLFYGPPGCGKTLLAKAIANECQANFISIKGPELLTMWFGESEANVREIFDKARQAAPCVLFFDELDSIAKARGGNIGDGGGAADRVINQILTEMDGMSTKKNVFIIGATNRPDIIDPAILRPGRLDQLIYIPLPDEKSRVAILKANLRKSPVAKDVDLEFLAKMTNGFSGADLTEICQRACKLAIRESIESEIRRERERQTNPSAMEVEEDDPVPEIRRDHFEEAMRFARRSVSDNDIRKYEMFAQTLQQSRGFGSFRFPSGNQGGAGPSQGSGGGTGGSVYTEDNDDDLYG

[12] = target: PF-7802-labelled proteins in ARPE-19 cells (Homo sapiens, UniProt P11279); details: protein LAMP1 Lysosome-associated membrane glycoprotein 1 (P11279); replicates in separate columns
[13] = target: PF-7802-labelled proteins in ARPE-19 cells (Homo sapiens, UniProt P62834); details: protein RAP1A Ras-related protein Rap-1A, P62834
Sequence of UniProt P62834 (P62834 whole entry): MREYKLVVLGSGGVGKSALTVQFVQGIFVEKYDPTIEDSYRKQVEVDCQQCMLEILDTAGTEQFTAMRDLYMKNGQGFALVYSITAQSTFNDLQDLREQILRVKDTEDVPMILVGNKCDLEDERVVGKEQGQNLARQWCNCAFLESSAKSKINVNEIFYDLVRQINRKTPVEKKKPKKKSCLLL

| SMILES | SILAC ratio (DMSO/CP-108671) ([1]; O14773 TPP1 Tripeptidyl-peptidase 1) | Median SILAC Ratio (Heavy/Light) [1] | SILAC ratio (DMSO/CP-108671) ([2]; P30837 ALDH1B1 Aldehyde dehydrogenase X, mitochondrial) | Median SILAC Ratio (Heavy/Light) [2] | Median SILAC Ratio (Heavy/Light) [3] | SILAC ratio (DMSO/CP-108671) ([4]; P49411 TUFM Elongation factor Tu, mitochondrial) | Median SILAC Ratio (Heavy/Light) [4] | Median SILAC Ratio (Heavy/Light) [5] | SILAC ratio (DMSO/CP-108671) ([6]; Q99798 ACO2 Aconitate hydratase, mitochondrial) | Median SILAC Ratio (Heavy/Light) [6] | Median SILAC Ratio (Heavy/Light) [7] | Median SILAC Ratio (Heavy/Light) [8] | SILAC ratio (DMSO/CP-108671) ([9]; P26599 PTBP1 Polypyrimidine tract-binding protein 1) | Median SILAC Ratio (Heavy/Light) [9] | Median SILAC Ratio (Heavy/Light) [10] | SILAC ratio (DMSO/CP-108671) ([11]; P55072 VCP Transitional endoplasmic reticulum ATPase) | Median SILAC Ratio (Heavy/Light) [11] | Median SILAC Ratio (Heavy/Light) [12] | Median SILAC Ratio (Heavy/Light) [13] |
| --- | --- | --- | --- | --- | --- | --- | --- | --- | --- | --- | --- | --- | --- | --- | --- | --- | --- | --- | --- |
| CNC1CCN(C(=O)C[C@@H](Cc2ccccc2)C(=O)N[C@@H](CSC)C(=O)N[C@@H](CC2CCCCC2)[C@@H](O)C(=O)OC(C)C)CC1 [CP-108671, reference compound] | 0.88 | 1.135 | 0.71 | 1.3994 | 1.21 | 0.83 | 1.206 | 1.856 | 0.87 | 1.146 | 1.159 | 0.8548 | 1.04 | 0.9647 | 1.1454 | 0.64 | 1.56 | 1.326 | 1.024 |
| Cc1cc([C@H]2C[C@H]3[C@@H](C)SC(N)=N[C@@]3(c3ccc(F)cc3F)CO2)on1 [PF-9283] |  | 1.274 and 1.656 and 1.755 |  | 1.4738 | 1.33 and 2.134 |  | 1.411 | 1.75 and 1.214 |  | 1.292 | 1.391 | 2.536 and 1.387 |  | 1.288 and 0.7894 | 1.094 |  | 1.513 | 1.473 | 1.132 and 0.6485 |
